Measured values published in PubChem BioAssay AID1508624 (National Center for Advancing Translational Sciences (NCATS), 2021).
About 120 (0.25%) of roughly 48,000 compounds were called active. Roughly 4% stayed inconclusive and do not appear here. Calls come from the whole dose curve; as a rule, active = well fitted activation curve with a large enough effect; inconclusive = small, poorly fitted or top-dose-only effect, or another doubt; inactive = no such curve, though single readings can be large or run the other way. Some of the results follow.

Assay: Primary qHTS for Identification of Small Molecule Activators of Huntingtin-Antisense Promoter Activity; note: nearly all actives have a fitted effect of over 55% in size
Conditions: HEK293 HTT-AS promoter firefly luciferase reporter, 24 h; series mostly up to 57.5 µM; activity change, positive = activation: at the top concentration
How it was run: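 Firefly luciferase signal from promoter-reporter HEK293 cells was scaled between vehicle (0%) and zero RLU (-100%). Compounds were tested at final concentrations of up to 57.5 uM over 24 h at 37 degrees C. PTC124 at 50 uM final served as control inhibitor.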

Activity change, positive = activation, inactive:
CO[C@H]1/C=C\O[C@@]2(C)Oc3c(C)c(O)c4c(O)c(c5c(nc6cc(C)ccn65)c4c3C2=O)NC(=O)C(C)=CC=C[C@H](C)[C@H](O)[C@@H](C)[C@@H](O)[C@@H](C)[C@H](OC(C)=O)[C@H]1C -11%
O=C(Nc1cccc(Cl)c1)N1CC2CCCN2c2ccccc21 (stereo not given) -21.3%
Cc1ccc(-n2c(=O)c3ccc(C(=O)NCc4ccco4)cc3n(CC(=O)Nc3ccc(C)c(F)c3)c2=O)cc1 -17.1%
Cc1ccc(NS(=O)(=O)c2ccc3c(c2)N(C)C(=O)CC(=O)N3C)cc1Cl -1.19%
CCC1CN(C(=O)N2CCC(C(=O)N3CCN(c4ccccc4)CC3)CC2)c2ccccc2O1 (stereo not given) -20.5%
CCOc1ccc(-n2c(SCC(=O)NCc3ccccc3)nc3n[nH]c(C)c3c2=N)cc1 -16.3%
Nc1nnc(-c2cccc(Cl)c2Cl)c(N)n1
O=S(=O)(NCC(c1cccs1)S(=O)(=O)c1ccccc1)c1ccccc1 (stereo not given) -30.7%
N#C/C(=C\c1ccc(OCc2ccc(Cl)cc2Cl)cc1)c1nc2ccccc2[nH]1 -32.5%
O=C(Nc1nc2n(n1)C(c1ccc(F)cc1)C=C(c1ccc(Cl)cc1)N2)c1ccc([N+](=O)[O-])cc1 (stereo not given) -28.6%
COc1ccc(NC(=O)c2cnn(-c3ccc(C)c(C)c3)c2C2CCNCC2)cc1OC 14.7%
Cc1cccc(C2=Nc3ccccc3N=C(c3cc(Cl)ccc3O)C2)c1 3.78% [at 11.5 µM, percent change from vehicle, -100% = no light]
Cc1oc2c(cc(NS(=O)(=O)c3ccc(C(C)C)cc3)c3ccccc32)c1C(=O)OCc1ccccc1 -16%
COc1ccc(OC)c(CNC(=O)c2cc3c(Cl)nc4ccccc4c3s2)c1 -14.3%
COc1ccccc1CC(=O)Nc1ccc2nc(Nc3cccc(C(F)(F)F)c3)cc(C)c2c1 -44.1%
CCOc1ccc(-n2c(C)nc3cc(C(=O)NC4CCCC4)ccc32)cc1 -11.8%
COC(=O)c1scc(-c2ccc(C)cc2)c1S(=O)(=O)N1CCN(c2ccc(F)cc2)CC1 -20.6%
Nc1c(C(=O)NCc2cccs2)nnn1CC(=O)Nc1cccc(F)c1 -9.89%
CCC1CCCCN1C(=O)c1c[nH]c2ccc(S(=O)(=O)Nc3cccc(OC)c3)cc2c1=O (stereo not given) -10.7%
O=C(NCc1ccco1)c1ccc2c(c1)N(Cc1ccccc1)C(=O)c1ccccc1S2 -45.3%
Cc1cc(C)c(S(=O)(=O)NCCc2sc3nc(-c4ccc(F)cc4)nn3c2C)c(C)c1 -10.5%
Cc1cc(C)cc(-n2ccn(CC(=O)c3ccc(F)cc3)c(=O)c2=O)c1 -4.29%
O=C(NC1CCCCC1)c1ccc(CSc2nc3cccnc3n2Cc2cccc(F)c2)cc1 -26.4%
CCOc1ccc(NC(=O)CCc2c(C)nc3cc(-c4ccccc4OC)nn3c2C)cc1 -20%
COC(=O)c1ccc(CSc2c(C(C)C)cnc3c2c(=O)n(C)c(=O)n3C)cc1 -0.901%
O=C(O)c1ccc(NS(=O)(=O)c2ccc(Cl)c(C(=O)Nc3ccccc3)c2)cc1 0.818%
Cc1ccc(N(C)S(=O)(=O)c2ccc3[nH]c(=O)ccc3c2)cc1 -13.3%
O=C(c1ccc(CS(=O)(=O)c2ccc(Br)cc2)o1)N1CCN(c2ccc(F)cc2)CC1 -37.3%
Cc1ccc(NC(=O)c2sc3ncnc(N(C)C4CCCCC4)c3c2C)c(C)c1 -5.53%
Cc1ccccc1OCC(=O)Nc1c(C(=O)Nc2ccccc2F)oc2ccccc12 -3.29%
CCOc1ccc(NC(=O)N2CC3CCCN3c3ccccc32)cc1 (stereo not given) -31.9%
CC(=O)NNc1ncnc2c1cnn2-c1ccccc1 6.74%
COC(=O)c1cnc(N2CCN(c3ccc(OC)cc3)CC2)c2ccccc12 -10.9%
Cc1ccccc1NS(=O)(=O)c1ccc2[nH]cc(C(=O)NCCc3ccccc3)c(=O)c2c1 -18.1%
O=C(O)/C=C(\CC(=O)O)C(=O)O 2.37%
CCN1CCN(c2ccc(Nc3cc(N(C)C(=O)Nc4c(Cl)c(OC)cc(OC)c4Cl)ncn3)cc2)CC1 1.26%
COc1ccc(CNC(=O)Cn2c(=O)n3nc(-c4ccc(OC)cc4)nc3c3ccccc32)cc1 15.8%
CC(=O)c1cccc(NS(=O)(=O)c2ccc3[nH]c4c(c3c2)CCCCC4)c1 -75.2%
COc1ccc(-c2noc(CSc3nnc(C)n3-c3ccc(F)cc3)n2)cc1 -22%
Cc1cn2c(=O)c(S(=O)(=O)Nc3ccc(OC(F)(F)F)cc3)c(C)nc2s1 -42.2%
COc1ccc(NC(=O)C(c2ccccc2)N(C)C(=O)/C=C\c2ccc3c(c2)OCO3)cc1 (stereo not given) -12.7%
COc1ccc(-c2c(C)nn3c(C(F)(F)F)cc(-c4ccc(C)cc4)nc23)cc1 -12.6%
COc1cc(OC)c(NC(=O)Nc2ccc3c(c2)N(C)C(=O)c2ccccc2S3)cc1Cl -23.8%
Cc1ccc(-c2onc(C)c2C)cc1S(=O)(=O)N1CCN(c2ccccc2F)CC1 -16.6%
COc1cc(OC)cc(-n2c(=O)c3sccc3n(Cc3ccc(F)cc3)c2=O)c1 3.7%
CCn1c2ccccc2c2cc(CN3CCN(Cc4cccc(Cl)c4)CC3)ccc21 -22.8%
CCOc1ccccc1CNC(=O)c1ccc(-n2c(C)cc3c2CCC(C)C3)cc1 (stereo not given) 3.84%
COC(=O)c1ccccc1NC(=O)CCCn1nc(C)c2c(C)n(-c3ccccc3)nc2c1=O 0.925%
Cc1ccc(C(=O)O)cc1NC(=O)c1nsc2ccccc12 5.56%
Cc1ccc(Cl)cc1N1CCN(c2nc3ccccc3c3nc(-c4cccnc4)nn23)CC1 -12.4%
COc1ccc(CCNC(=O)CN2C(=O)COc3ccc(S(=O)(=O)N4CCCC4)cc32)cc1OC -12.7%
Cc1ccc(CNC(=O)c2cc(-c3ccc(C)c(C)c3)nc3ccccc23)cc1 8.27%
COC(=O)c1sc(N2C(=O)c3oc4ccc(C)cc4c(=O)c3C2c2ccc(OC)cc2)nc1C (stereo not given) -14.6%
Cc1cc(Cl)ccc1NC(=O)CSc1nc2c(c(=O)[nH]1)CCC2 -21.4%
Cc1ccc(NC(=O)C(=O)NCC(c2cccnc2)N2CCN(Cc3ccccc3)CC2)cc1Cl (stereo not given) -13%
CCOC(=O)c1ccc(NC(=O)CS(=O)(=O)Cc2nc(-c3ccc(C)cc3)oc2C)cc1 -24.2%
CCCCc1ccc(NC(=O)CSc2nc3ccccc3nc2N2CCCCC2)cc1 -10.3%
COC(=O)c1c(-c2ccc(Cl)cc2)noc1N1CCN(c2ccc(C(C)=O)cc2)CC1 -1.07%
CCCNC(=O)CCc1c(C)nc2nc(CNC(=O)c3ccccc3)nn2c1C 3.32%
CCOc1ccc(NC(=O)C(CC)n2nc(C)c3c(C)n(-c4ccccc4)nc3c2=O)cc1 (stereo not given) -14.6%
Cc1ccc(F)cc1NC(=O)CSc1nc(-c2cccs2)cc(C(F)(F)F)n1 -16.4%
Cc1ccc(NC(=O)CN2C(=O)CC(c3ccco3)Sc3ccccc32)cc1Cl (stereo not given) -26.3%
COc1ccc(NC(=O)c2oc3ccccc3c2NC(=O)c2cc3ccccc3o2)c(OC)c1 -4.45%
CC1CCN(S(=O)(=O)c2ccc3c(c2)c(=O)c(C(=O)N2CCN(c4cccc(Cl)c4)CC2)cn3C)CC1 1.86% [at 11.5 µM, percent change from vehicle, -100% = no light]
Cc1ccc(-n2ncc(C(=O)NCCN3CCc4ccccc4C3)c2C2CCN(C(=O)OC(C)(C)C)CC2)cc1C -41.5%
COc1ccc(NC(=O)CN2CCN(CC(=O)Nc3ccccc3F)CC2)c(OC)c1 -13.4%
COc1ccc(S(=O)(=O)c2c(Nc3cccc(C)c3C)sc(C(=O)c3ccccc3)c2N)cc1 -31.4%
Cc1cccc(C)c1NC(=O)CN1CCN(CCCC(c2ccc(F)cc2)c2ccc(F)cc2)CC1 -32%
CCOC(=O)c1c(C)oc2nc(C)nc(NCCc3ccc(OCC)c(OCC)c3)c12 -31%
COC(=O)c1ccc(NC(=O)CSc2cn(CC(=O)N3CCCCC3)c3ccccc23)cc1 -16.8%
COc1ccc(N2CCN(c3ncnc4c3cnn4-c3ccc(F)cc3)CC2)cc1 16%
CC1CCN(C(c2ccccc2)c2sc3nc(-c4ccco4)nn3c2O)CC1 (stereo not given) -5.99%
COc1ccc(CNS(=O)(=O)c2cc3c(cc2Cl)N(C(C)=O)CCO3)cc1 -5.89%
O=C(CSc1nc(-c2ccccc2)cn1-c1ccccc1F)Nc1ccc(F)cc1 -10.8%
COc1cc(NC(=O)CN2CCN(S(=O)(=O)c3ccc(Br)cc3)CC2)cc(OC)c1 0%
Cc1ccc(Nc2cc(C(=O)NCCc3ccccc3)c3ccccc3n2)c(C)c1 -1.2%
COc1ccc(NC(=O)CSc2nc(-c3cc(OC)c(OC)c(OC)c3)[nH]c2-c2ccc(F)cc2)cc1 -40.2%
CCCCC(=O)Nc1c(C(=O)N2CCN(c3ccccc3F)CC2)oc2ccccc12 -26.4%
CCCOC(=O)c1cccc(NC(=O)c2c(-c3ccccc3Cl)noc2C)c1 -35.7%
O=C(Cn1nc(-c2ccc(Cl)cc2)c2ccccc2c1=O)Nc1cccc(Br)c1 -16.9%
Cc1ccccc1Cn1c(COc2ccc(Cl)cc2)nc2ccccc21 9.68%
Cc1nc2ccc(S(=O)(=O)N(C)CC(=O)Nc3ccc(C(C)C)cc3)cc2s1 -15.1%
COc1ccc(CNC(=O)C2CCN(c3nnc(-n4c(C)ccc4C)s3)CC2)c(OC)c1 0.707%
O=C(Nc1cccc(F)c1)C1CCCN(S(=O)(=O)c2cccc3cccnc23)C1 (stereo not given) -6.64%
CCCCN(C)CCCNC(=O)C1CCN(S(=O)(=O)CCC)CC1 10.7%
O=C(Nc1ccccc1C(F)(F)F)c1ncoc1-c1ccco1 -16.3%
COc1ccc(-c2cc(C(F)(F)F)nc(SCCC(=O)Nc3ccc(NC(C)=O)cc3)n2)cc1 -15.8%
CCN(CC)c1ccc(CNCCCSc2nnnn2C)cc1 -7.03%
COc1ccc(CNC(=O)c2cc(Nc3ccccc3C)nc3ccccc23)cc1 -12.4%
Cc1oc2ncn(C)c(=O)c2c1C(=O)N1CCN(c2cccc(C(F)(F)F)c2)CC1 -14.7%
